Reference: publication PMC7819943, “Rice protein-binding microarrays: a tool to detect cis-acting elements near promoter regions in rice”
This is one part of the list.

target: T1, OsWOX13 (Oryza sativa, UniProt Q5QMM3 1-267); experiment: protein-binding microarray (RPBM); PBS, 2% BSA, 51.3 ng/ul salmon testes DNA, 50 uM zinc acetate, 200 nM TF, 25 C, 1 h; high values mean tight binding; conditions: protein: recombinant; tags: N-terminal polyhistidine and DsRed monomer fusion (pET32a); label: CyDye5-dUTP incorporated in the synthesized complementary strand; 3' TTTTT single-stranded linker to array surface; dsDNA, one strand shown
T1 sequence: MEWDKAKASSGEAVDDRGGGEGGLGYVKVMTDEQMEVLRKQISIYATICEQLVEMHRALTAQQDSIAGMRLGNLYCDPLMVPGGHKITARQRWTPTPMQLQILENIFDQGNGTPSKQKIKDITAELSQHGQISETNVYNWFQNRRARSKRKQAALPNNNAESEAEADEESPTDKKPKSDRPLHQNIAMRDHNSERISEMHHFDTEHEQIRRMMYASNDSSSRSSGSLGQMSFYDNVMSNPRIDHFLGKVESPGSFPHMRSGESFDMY
In short: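 Ni–NTA purification followed expression in E. coli BL21-CodonPlus of transcription factors fused N-terminally to a polyhistidine tag and DsRed. At 200 nM in PBS with 2% BSA, salmon testes DNA and 50 µM zinc acetate, the protein was incubated for 1 h at 25 °C with a custom Agilent array that had been primer-extended with Cy5-dUTP and blocked with 2% BSA. After washing, the array was read on an Axon 4000B scanner. The binding signal is per-feature fluorescence intensity in arbitrary units.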

Row | Sequence | binding signal
1 | TTAATTAGTTCTTCCATTTCCACAACTACTCCATATTTCCCGGAGTCACCTAGTGCAG | 4850 fluorescence intensity (a.u.)
2 | GATCATTACGGTACCTTGATTTATCCTTTATAAATCTCAGCGGAGTCACCTAGTGCAG | 9130 fluorescence intensity (a.u.)
3 | GAATGATCAATTTTGACGAGTTTAAAGTCATGATGCAAGGCGGAGTCACCTAGTGCAG | 10400 fluorescence intensity (a.u.)
4 | CTTAATTCAGCATCACTAATTTGTATGAATTTCATATTCCCGGAGTCACCTAGTGCAG | 15500 fluorescence intensity (a.u.)
5 | ACTGATTGATTGCCCTGATGGCAATTTTATATGGTTAATACGGAGTCACCTAGTGCAG | 38400 fluorescence intensity (a.u.)
6 | CTCTAAATTATTTCTTCGAAAAGGACTCGGACATCCTATTCGGAGTCACCTAGTGCAG | 9370 fluorescence intensity (a.u.)
7 | TATCAATAAACTAATTGTCAATTTGCCATGAGGTTTAAACCGGAGTCACCTAGTGCAG | 15300 fluorescence intensity (a.u.)
8 | ATTTGCACATGATTGATCACAAGTTGTGATTCACAAATCACGGAGTCACCTAGTGCAG | 22100 fluorescence intensity (a.u.)
9 | GCCAAATTAGATGGAAAGTTGGTTATATAGGTGTTTATATCGGAGTCACCTAGTGCAG | 29100 fluorescence intensity (a.u.)
10 | ATCATTGGATTGGTATTTCAATATATTTTCATATGTTATACGGAGTCACCTAGTGCAG | 3500 fluorescence intensity (a.u.)
11 | AAAATTAATGAAAATGTTTATTTTGACAGTATGAATATGCCGGAGTCACCTAGTGCAG | 17100 fluorescence intensity (a.u.)
12 | GCTATATTGGTATAATATGATAATCTCCTCTAAAGGTGTTCGGAGTCACCTAGTGCAG | 3240 fluorescence intensity (a.u.)
13 | GTGCAATTTAACTCCATAAATTACTTTCAGAAATGTGCAGCGGAGTCACCTAGTGCAG | 11300 fluorescence intensity (a.u.)
14 | TCAATATAAATTAACTTTGCTACACGAATCTTAATATAGGCGGAGTCACCTAGTGCAG | 5040 fluorescence intensity (a.u.)
15 | AATCATCGCTCTTAATTATGATCTACCTACTTTATGTCTGCGGAGTCACCTAGTGCAG | 5190 fluorescence intensity (a.u.)
16 | ATTCACCTGCTTTAATTTGCATCGATCCCAACTTAAACTGCGGAGTCACCTAGTGCAG | 4250 fluorescence intensity (a.u.)
17 | AGATAAATTGCATTCATGATACTTTGTGCTTGTACTTGACCGGAGTCACCTAGTGCAG | 27100 fluorescence intensity (a.u.)
18 | CATTAATTTACGCGCTAAATCACCGGTTAGGCCTCGTTTACGGAGTCACCTAGTGCAG | 29200 fluorescence intensity (a.u.)
19 | CCATGAGATTGAGACCAGCCAAAGCCCAAGCAGCTTGCATCGGAGTCACCTAGTGCAG | 14800 fluorescence intensity (a.u.)
20 | ATCAAATTATTATTGTCAAGGGGATGAAAGGAAAAGAATACGGAGTCACCTAGTGCAG | 4590 fluorescence intensity (a.u.)
21 | TAGTTAATTAGGAAAGGAAAACTAATGTACCATGACTGTTCGGAGTCACCTAGTGCAG | 19100 fluorescence intensity (a.u.)

Row | Sequence | binding signal
22 | GACATAGACAGAAAATTAAGAAGAATAACACGGTGTTCGTCGGAGTCACCTAGTGCAG | 12400 fluorescence intensity (a.u.)
23 | ATATATAGATTATTTTGACTTGAAATTGTGAAATTACTCTCGGAGTCACCTAGTGCAG | 5960 fluorescence intensity (a.u.)
24 | TCCTAACCAATAATTAACAAATCCTTGCAGATGGTTTGGACGGAGTCACCTAGTGCAG | 29800 fluorescence intensity (a.u.)
25 | TATATTCAATTATTGATTTGATAAAACTAATTTAGTATTACGGAGTCACCTAGTGCAG | 24300 fluorescence intensity (a.u.)
26 | CCGAGATTTTGTTTGCATGGTGATTAGAATCACCGAAGCCCGGAGTCACCTAGTGCAG | 12400 fluorescence intensity (a.u.)
27 | ATATATATCACAGTATAAGATTGGCGGCGGCGGCTTACATCGGAGTCACCTAGTGCAG | 4020 fluorescence intensity (a.u.)
28 | CGATTGTCAATTCTTCGCAATCATAGATGCTAGCTAGCTTCGGAGTCACCTAGTGCAG | 4020 fluorescence intensity (a.u.)
29 | CTAGCTGATGGATGACTAATTTAGTTTAATTAAGTCCAAACGGAGTCACCTAGTGCAG | 35100 fluorescence intensity (a.u.)
30 | TGTAACAAATTAGATTATCCCATTTGTCTGACGTTGCCTGCGGAGTCACCTAGTGCAG | 27100 fluorescence intensity (a.u.)
31 | ATCTAAATTTGAGAATCTGATCAAACCCAGACTTAAACTACGGAGTCACCTAGTGCAG | 3970 fluorescence intensity (a.u.)
32 | AACTATATAAATTGAGAAATTAATGGTCAGAATTACGAATCGGAGTCACCTAGTGCAG | 5510 fluorescence intensity (a.u.)
33 | GGCACATTGTGATTGAATCTTGGATCGAGGCTGGACTTCCCGGAGTCACCTAGTGCAG | 22600 fluorescence intensity (a.u.)
34 | TATTGATTTGATAAAACTAATTTAGCATTATAAATATTATCGGAGTCACCTAGTGCAG | 21300 fluorescence intensity (a.u.)
35 | TTTCTGATTTTGTTTTGCTATTGTTTTGTTTGTCTTGTTTCGGAGTCACCTAGTGCAG | 12100 fluorescence intensity (a.u.)
36 | CTACTAGAGTAATAATAACGTAATTACAGATCAAGGTTGGCGGAGTCACCTAGTGCAG | 4430 fluorescence intensity (a.u.)
37 | ATGAAAATTATACAGATTTGTGAAATTTTACACGATAGTTCGGAGTCACCTAGTGCAG | 14700 fluorescence intensity (a.u.)
38 | TATTAATTCCCTTAAAGATTTGCAAAGCTTACCACTGTACCGGAGTCACCTAGTGCAG | 4810 fluorescence intensity (a.u.)
39 | TCTATAATAATAATTGTGACTGCTGCACTATACGGAGGCTCGGAGTCACCTAGTGCAG | 11200 fluorescence intensity (a.u.)
40 | CATCTATTTCGACAATGTGATTTCACATGACAGACTTGGGCGGAGTCACCTAGTGCAG | 3250 fluorescence intensity (a.u.)
41 | GCGCGTGTGATTATAGGGGTGAATATGTATACGCTCACCTCGGAGTCACCTAGTGCAG | 6220 fluorescence intensity (a.u.)
42 | TTATTCAGATAATTTGATGATGATGAAAGCAGAAGCTTTGCGGAGTCACCTAGTGCAG | 8570 fluorescence intensity (a.u.)
